The whole screen tested about 410,000 compounds, of which about 6,400 (1.6%) were called active. This list was built around the results that the source calls inconclusive (neither active nor inactive); the mix of calls is not that of the screen. The call rests on the fitted dose curve; in most records, active means well fitted inhibition curve with a large enough effect; inconclusive means small, poorly fitted or top-dose-only effect; inactive means no such curve, though single readings can be large or run the other way. Potencies of inconclusive entries are left out as doubtful fits.
Biological target: Glucagon-like peptide 1 receptor (Homo sapiens) (UniProt P43220)
Assay: qHTS of GLP-1 Receptor Inverse Agonists (Inhibition Mode); further: nearly all actives have a fitted effect of over 55% in size
Settings: HEK293 GLP-1R CRE-luciferase, luminescence, 24 h, GLP-1R form is constitutively active; activity change, negative = inhibition: at 38.3 µM (top of the series) unless noted
Procedure, shortened: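 Using stably transfected HEK293 (constitutively active GLP-1R, cAMP-luciferase reporter), compounds were incubated 24 hr and luciferase measured by luminescence.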
On the % scale 0 is the no-effect control and ±100 the full control effect; potency means the concentration at half of the fitted maximal effect; tags describe the fitted curve by direction and shape.

Chain of UniProt P43220 (P43220 whole entry, looked up): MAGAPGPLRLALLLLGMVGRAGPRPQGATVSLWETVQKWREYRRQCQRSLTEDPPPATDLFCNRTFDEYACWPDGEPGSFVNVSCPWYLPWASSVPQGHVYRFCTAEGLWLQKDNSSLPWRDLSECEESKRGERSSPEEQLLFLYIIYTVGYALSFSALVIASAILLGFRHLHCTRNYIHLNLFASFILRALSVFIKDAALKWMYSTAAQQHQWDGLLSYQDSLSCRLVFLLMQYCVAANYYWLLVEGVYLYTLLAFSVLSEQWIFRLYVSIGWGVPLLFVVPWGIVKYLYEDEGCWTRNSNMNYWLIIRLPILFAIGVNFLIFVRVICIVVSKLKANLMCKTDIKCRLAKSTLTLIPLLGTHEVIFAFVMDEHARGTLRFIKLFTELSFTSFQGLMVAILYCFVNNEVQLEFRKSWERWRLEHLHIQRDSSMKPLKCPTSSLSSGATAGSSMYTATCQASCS

Structure (SMILES) | Potency | activity change, negative = inhibition
Cc1ccc(C)c(N2CCN(C(=O)C3CCN(c4nnc(N5CCCC5=O)s4)CC3)CC2)c1 | inconclusive [inhibitor, partial curve, poor fit] | –
Cc1ccc(C)c(NC(=S)N=Nc2c(O)n(C)c3ccc(S(=O)(=O)N4CCOCC4)cc23)c1 | inconclusive [inhibitor, full curve, poor fit] | –
CCC(CO)Nc1ccn2nc(-c3cc(OC)c(OC)c(OC)c3)cc2n1 (configuration not stated) | inactive | –
CC(=O)C(=Nc1cccc(Cl)c1)NNc1ccccc1C | inconclusive [inhibitor, single point] | –
Cc1ccc(C(=O)N2CCc3cc(CNC(=O)CCc4ccccc4)ccc32)cc1 | inconclusive [inhibitor, single point] | –
Cc1ccc(CN2C(=O)c3ccccc3Sc3ccc(C(=O)NC4CCCC4)cc32)cc1 | inconclusive [inhibitor, partial curve, poor fit] | –
O=C(CCc1nnc(-c2ccc(-c3ccccc3)cc2)o1)N1CCCCC1 | inconclusive [inhibitor, partial curve, poor fit] | –
O=C(Oc1cccc(C(=S)N2CCOCC2)c1)c1ccc([N+](=O)[O-])cc1 | inactive | –
CC(=O)c1cccc(NC(=S)NCCC2=CCCCC2)c1 | inconclusive [inhibitor, single point] | –
O=C(Cn1c(SCc2ccccc2F)nc2cccnc21)Nc1ccc(F)c(Cl)c1 | inconclusive [inhibitor, single point] | –
CC(C)Cn1cc(C(=O)N2CCC(C)CC2)c2c3ccccc3n(C)c2c1=O | inconclusive [inhibitor, single point] | –
O=C(CSc1ccc(Cl)cc1)N1N=CCC1c1ccccc1 (configuration not stated) | inconclusive [inhibitor, partial curve, poor fit] | –
CC(C)c1ccc(NC2CCCN(C(=O)c3ccccc3-c3ncc[nH]3)C2)cc1 (configuration not stated) | inconclusive [inhibitor, partial curve, poor fit] | –
COc1ccc2c(c1)C(=O)N1[C@H]3c4cc(C)ccc4OC[C@@H]3[C@H](c3ccccc3)[C@]1(C)C(=O)N2 | inconclusive [inhibitor, full curve, poor fit] | –
CC1=C(C(=O)OC2CCCCC2)C(c2ccccc2F)NC(=O)N1 (configuration not stated) | – | inconclusive: -46.2% [inhibitor]
Cc1c(/C=N\NC(=O)c2cc3ccccc3o2)c2ccccc2n1C | inconclusive [inhibitor, full curve, poor fit] | –
CCCCNc1sc(S(=O)(=O)CCC)nc1S(=O)(=O)c1ccc(C)cc1 | inconclusive [inhibitor, single point] | –
CCCCCCCNC(=O)C1CC(=O)N(C)C(=Nc2ccc(OC)cc2)S1 (configuration not stated) | inconclusive [inhibitor, partial curve] | –
Cc1ccc2nc(NC(=O)CSc3nc(=O)n(CCN(C)C)c4c3CCCC4)sc2c1 | inconclusive [inhibitor, partial curve] | –
Cn1cc(S(=O)(=O)CC(=O)Nc2ccc(Br)cc2)c2ccccc21 | inconclusive [inhibitor, partial curve, poor fit] | –
COc1cccc(NC(=O)C2(S(=O)(=O)c3ccc(Cl)cc3)CC2)c1 | inconclusive [inhibitor, single point] | –

Structure (SMILES) | Potency | activity change, negative = inhibition
Nc1nc(CSc2ccc(Cl)cc2)nc(N2CCCCC2)n1 | inconclusive [inhibitor, single point] | –
O=C(c1cnc(N2CCCCC2)c2ccccc12)N1CCN(c2cccc(Cl)c2)CC1 | inconclusive [inhibitor, partial curve, poor fit] | –
CCOc1ccc(NC(=O)CC2C(=O)N(c3ccccc3)C(=O)N2Cc2cccc(OC)c2)cc1 (configuration not stated) | inactive | –
CCCCC#Cc1cncc(C(=O)N/N=C/c2cccc(OC)c2)c1 | inconclusive [inhibitor, partial curve] | –
CCS(=O)(=O)N1Cc2ccccc2CC1C(=O)Nc1nc2ccccc2s1 (configuration not stated) | inconclusive [inhibitor, partial curve, poor fit] | –
CC(C)(C)n1nnnc1C(c1cccs1)N(Cc1ccccc1)Cc1ccco1 (configuration not stated) | inconclusive [inhibitor, single point] | –
Cc1ccccc1-c1cc(C(=O)NCc2ccco2)n(CC2CC(c3cccnc3)=NO2)n1 (configuration not stated) | inconclusive [inhibitor, single point] | –
CCOC(=O)N1CCN(S(=O)(=O)c2ccc(C(=O)N(CCN(CC)CC)c3nc4ccc(C)cc4s3)cc2)CC1 | inconclusive [inhibitor, single point] | –
O=C(Nc1ccc(OC(F)(F)F)cc1)C1CCCCN1S(=O)(=O)c1ccccc1 (configuration not stated) | inconclusive [inhibitor, partial curve, poor fit] | –
O=C1CSC(=Nc2ccccc2)N1Cc1ccccc1 | inconclusive [inhibitor, partial curve, poor fit] | –
CCCOc1ccc(C(=O)O/N=C(\CC)c2ccc(C)cc2)cc1 | inconclusive [inhibitor, single point] | –
CN1C[C@@H]2[C@@H]3C(=O)N(C)C(=O)[C@@H]3[C@](C)(C1=O)N2C(=O)c1ccc(C(C)(C)C)cc1 | inactive | –
O=[N+]([O-])c1cc(-c2nnc(Nc3ccccc3)c3ccccc23)ccc1N1CCOCC1 | inconclusive [inhibitor, partial curve, poor fit] | –
COc1ccccc1NC(=O)Nc1ccc(C(=O)N2CCCCC2)cc1 | active: 8.91 µM | –
COCCCN(C(=S)Nc1cc(C)cc(C)c1)C(C)c1ccncc1 (configuration not stated) | inactive | –
O=[N+]([O-])c1ccccc1S(=O)(=O)N1CCN(CC2CC=CCC2)CC1 (configuration not stated) | inconclusive [inhibitor, single point] | –
COc1ccc(-n2c(=O)c(CCC(=O)N(C)Cc3cccs3)nc3ccccc32)cc1 | inconclusive [inhibitor, single point] | –
CCC1(C)Cc2ccccc2-c2nc(NCCO)n(-c3ccc(C)cc3)c(=O)c21 (configuration not stated) | inconclusive [inhibitor, partial curve, poor fit] | –
O=c1c(N2CCCCC2)csc2ccc(F)cc12 | inactive | –
Nc1nc2ccccc2n1CCOc1ccc(F)cc1 | inconclusive [inhibitor, single point] | –
CCOCCCNC(=S)N1CCN(Cc2ccc3c(c2)OCO3)CC1 | inconclusive [inhibitor, single point] | –

Structure (SMILES) | Potency | activity change, negative = inhibition
CCOC(=O)C1=C(C)NC(C)=C(C(=O)OCC)C1C(=O)OCC(=O)NCCc1ccccc1 | inconclusive [inhibitor, single point] | –
CCOc1cc(/C=N/N=C(N)N)ccc1OCc1ccc(Cl)cc1 | active: 11.2 µM | –
COc1cc(/C=N/OCC(=O)Nc2cc(C)cc(C)c2)ccc1OCc1ccc(Cl)cc1 | inconclusive [inhibitor, partial curve, poor fit] | –
Cc1ccc2c(c1)c1ncnc(N3CCOCC3)c1n2C | inactive | –
CCOc1ccccc1C(=O)N(Cc1ccco1)Cc1ccccc1F | inconclusive [inhibitor, single point] | –
Cc1ccc(C(=O)Nc2ccc(Br)cc2)cc1S(=O)(=O)NCc1ccccc1 | inconclusive [inhibitor, partial curve, poor fit] | –
O=C(CN1CCN(Cc2ccccc2)CC1)Nc1ccc(Br)cc1 | inconclusive [inhibitor, partial curve, poor fit] | –
COc1ccc(Cl)cc1C(=O)NCCS(=O)(=O)N1CCN(c2ccccc2F)CC1 | inconclusive [inhibitor, partial curve, poor fit] | –
COc1ccc(C(C)=O)cc1COc1nc(C)nc2ccccc12 | inactive | –
O=C(N/N=C/c1cc(Br)c(O)c(Br)c1O)c1cccnc1 | inconclusive [inhibitor, partial curve, poor fit] | –
O=C(NCCc1c[nH]c2ccccc12)C1CCN(c2nnc(N3CCCC3=O)s2)CC1 | inconclusive [inhibitor, full curve, poor fit] | –
COc1cccc(N/C=C/C(=O)c2ccc(C)cc2)c1 | inconclusive [inhibitor, single point] | –
CC(C)(C)CC(C)(C)NC(=S)Nc1ccc(S(=O)(=O)N2CCOCC2)cc1 | inconclusive [inhibitor, partial curve, poor fit] | –
CCOc1ccc2nc(NC(=O)c3ccccc3)sc2c1 | inconclusive [inhibitor, single point] | –
CC1=CCC(COC(=O)Nc2ccccc2)CC1 (configuration not stated) | inconclusive [inhibitor, single point] | –
COc1ccc(-c2oc(/N=C/N3CCCC3)c(C#N)c2-c2ccc(OC)cc2)cc1 | inconclusive [inhibitor, full curve] | –
COc1ccc(-c2ccc(C(=O)NCc3ccc(N4CCN(C)CC4)cc3)c3occc23)c(C)c1 | inconclusive [inhibitor, single point] | –
COc1ccccc1NC(=O)c1ncoc1-c1ccco1 | inactive | –
CC(C)OCCCNC(=O)CN1C(=O)COc2ccc(S(=O)(=O)N3CCOCC3)cc21 | inactive | –
Cc1ccc(C)c2[nH]c(=O)c(CN(Cc3ccc4c(c3)OCO4)Cc3nnnn3Cc3ccco3)cc12 | inconclusive [inhibitor, partial curve] | –

From PubChem BioAssay AID624417 (National Center for Advancing Translational Sciences (NCATS), 2012)
